# Measurements published in paper PMC4336329 (PLoS ONE, 2015).
# About 2,200 (0.71%) of roughly 310,000 compounds showed an effect of 50% or more. The effect is printed as a negative number. Some of the results follow.
# Molecular target: human ether-à-go-go-related gene (hERG) potassium channel (human, UniProt Q12809)
# Test: primary screen, population patch clamp on CHO cells stably expressing hERG
# Sequence of human ether-à-go-go-related gene (hERG) potassium channel (Q12809 whole entry, looked up): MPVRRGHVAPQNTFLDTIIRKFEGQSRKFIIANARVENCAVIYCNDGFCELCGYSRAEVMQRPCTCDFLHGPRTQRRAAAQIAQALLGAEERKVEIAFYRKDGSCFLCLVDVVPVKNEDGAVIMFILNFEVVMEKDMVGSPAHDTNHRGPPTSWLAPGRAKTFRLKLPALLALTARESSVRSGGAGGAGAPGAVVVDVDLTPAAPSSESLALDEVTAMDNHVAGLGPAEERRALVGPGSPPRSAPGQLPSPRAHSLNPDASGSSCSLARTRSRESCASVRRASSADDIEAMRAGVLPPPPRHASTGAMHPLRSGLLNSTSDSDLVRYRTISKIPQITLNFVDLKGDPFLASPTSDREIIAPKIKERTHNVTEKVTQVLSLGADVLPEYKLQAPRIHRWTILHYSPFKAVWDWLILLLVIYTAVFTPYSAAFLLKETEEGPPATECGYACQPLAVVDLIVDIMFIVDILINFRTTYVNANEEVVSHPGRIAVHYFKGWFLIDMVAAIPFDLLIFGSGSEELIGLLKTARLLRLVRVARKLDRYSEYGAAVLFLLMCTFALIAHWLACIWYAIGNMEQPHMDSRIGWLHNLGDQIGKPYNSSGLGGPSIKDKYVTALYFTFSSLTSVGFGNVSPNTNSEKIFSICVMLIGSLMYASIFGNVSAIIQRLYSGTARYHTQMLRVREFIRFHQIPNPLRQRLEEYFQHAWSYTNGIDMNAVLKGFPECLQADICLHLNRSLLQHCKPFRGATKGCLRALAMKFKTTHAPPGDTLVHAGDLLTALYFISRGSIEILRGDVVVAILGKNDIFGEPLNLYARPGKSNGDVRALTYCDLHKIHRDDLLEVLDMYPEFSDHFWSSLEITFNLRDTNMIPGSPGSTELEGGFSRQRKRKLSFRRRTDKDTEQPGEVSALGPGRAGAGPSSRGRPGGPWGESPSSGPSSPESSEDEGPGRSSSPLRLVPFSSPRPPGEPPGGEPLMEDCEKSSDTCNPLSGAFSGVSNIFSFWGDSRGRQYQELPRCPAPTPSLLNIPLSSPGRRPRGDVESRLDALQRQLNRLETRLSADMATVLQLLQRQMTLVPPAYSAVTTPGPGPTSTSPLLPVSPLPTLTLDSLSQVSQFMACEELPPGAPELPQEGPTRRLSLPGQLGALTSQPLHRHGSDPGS
row,Compound,"hERG current change (%, negative = inhibition) at 1uM [%]"
1,Cc1ccc(S(=O)(=O)N2CCN(C(=O)COC(=O)CSc3cc(C)ccc3C)CC2)c(C)c1,3.82
2,Cc1cc(C)c(C(=O)N(C)C2CCCN(Cc3ccccc3F)C2)o1 (stereo not shown),9.19
3,COC(=O)Nc1nc(-c2ccc(F)cc2)c(C)s1,11.3
4,CC1CCCN(S(=O)(=O)c2ccc(N(C(=O)c3cnccn3)C(C(=O)NC3CCCCC3)c3cccs3)cc2)C1 (stereo not shown),7.09
5,COC(=O)C1[C@H]2SC(C)(C)C(C(=O)OC)N2C(=O)N1Cc1nc2ccccc2s1 (stereo partly shown),-4.16
6,COc1ccc2nc3oc(C(=O)N4CCN(c5ccccc5F)CC4)cc3cc2c1,21.9
7,COCCNC(=O)COCc1cc(-c2ccc3c(c2)OCO3)on1,18.6
8,COCCNc1nc(SC)nc2sc3c(c12)CCN(C)C3,-42.1
9,C=C1CCN(c2ccc(C(=O)NCc3ccc(OC)cc3)cc2[N+](=O)[O-])CC1,3.7
10,CCOC(=O)N1CCN(C(=O)c2ccc(OCC)cc2)CC1,12.1
11,CCN1N=C(C)C=C(c2ccccc2)n2c1nc1ccccc12.Cl,1.53
12,CC(C)(C)C1=NN(c2ccc([N+](=O)[O-])cc2)C(c2ccccc2)C1 (stereo not shown),8.46
13,CCCn1c(SCC(=O)N2c3ccccc3CCc3ccccc32)nc2c1c(=O)n(C)c(=O)n2C,18.3
14,COCCNC(=S)Nc1ccc2nc(N3CCOCC3)cc(C)c2c1,14.9
15,CC(=O)c1ccc(S(=O)(=O)NCCCC(=O)N(C)Cc2ccc3c(c2)OCO3)cc1,-16
16,COc1ccc(N(CC(=O)N/N=C/c2ccc(OC)c(OC)c2)S(=O)(=O)c2ccccc2)cc1,17.7
17,O=C(Cn1cnc([N+](=O)[O-])c1)Nc1cc(Oc2ccc(Cl)cc2Cl)cc([N+](=O)[O-])c1,5.84
18,CCn1nnc(NC(=O)c2ccco2)n1,14.7
19,COc1cc(CCC(=O)Nc2cc(Cl)ccc2N2CCN(C)CC2)cc(OC)c1OC,6.79
20,NNC(=O)CNc1ccccc1Cl,12.2
21,Cc1ccc(N(C(=O)Cc2cccs2)C2C=CS(=O)(=O)C2)cc1Cl (stereo not shown),7.2
22,COc1cc(NC(=O)CCc2nnc3ccc(NCc4ccco4)nn23)cc(OC)c1,14.5

row,Compound,"hERG current change (%, negative = inhibition) at 1uM [%]"
1,Cc1cccc(OC(=O)c2cncc(Br)c2)c1,10.1
2,Cc1ccc(-n2c(C)cc(/C=C3\SC(=O)NC3=O)c2C)cc1,10.4
3,CCCNC(=O)CCC(=O)Nc1ncc(-c2ccc(C)cc2)n1C,16.1
4,O=C(CN1CCN(c2ccccc2)CC1)Nc1cccc(C(F)(F)F)c1,12.4
5,Cc1ccc(C(=O)C[n+]2ccccc2C)cc1[N+](=O)[O-].[Br-],6.63
6,COc1ccc(N/N=C(/N=Nc2nc(C)cc(=O)[nH]2)c2ccccc2)cc1,-5.23
7,CCOC(=O)c1ccc(NC(=S)NC(=O)c2cncc(Br)c2)cc1,12.3
8,COc1cccc(NC(=O)Cc2csc(NC(=O)Nc3ccccc3OC)n2)c1,12.6
9,Cc1ccc2c(CC(=O)N3CCc4ccccc43)coc2c1,8.85
10,Cc1ccc(C)c(NC(=S)NNC(=O)c2csc(C)c2C)c1,5.34
11,O=C1Nc2ccccc2Nc2ccccc21,17.7
12,O=C(NCN1CCN(CCO)CC1)c1cnccn1,14.3
13,CC(Sc1nc(N)cc(=O)[nH]1)C(=O)NCC(=O)Nc1ccc(F)c(F)c1F (stereo not shown),-12.7
14,CN(C)c1ccc(/C=N/NC(=O)CNC(=O)c2ccco2)cc1,18.4
15,CCON1C(=O)CN(C(=O)OC)C1c1ccc(Cl)cc1Cl (stereo not shown),5.27
16,CC(=O)Nc1ccc(NC(=O)c2ccc(-n3c(C)ccc3C)cc2)cc1,3.14
17,CC(=O)c1ccc(NC(=O)Nc2ncn(Cc3cccc(C)c3)n2)cc1,3.63
18,CC(=O)c1ccc(-c2ccccc2OC(F)(F)F)o1,8.56
19,CC(=O)Nc1ccc(S(=O)(=O)N[C@@H](C)C(=O)Nc2ccc(N3CCOCC3)cc2)cc1,14
20,Br.N=c1n(CCN2CCOCC2)c2ccccc2n1CC(=O)c1ccc(Cl)c(Cl)c1,-69.1
21,Nc1cccc(C(=O)O)c1,10.1
22,CCN(C(=O)COC(=O)c1ccccc1NCCO)c1cccc2ccccc12,8.47

row,Compound,"hERG current change (%, negative = inhibition) at 1uM [%]"
1,C/C(=N/NC(=O)CSCc1ccc(Cl)cc1)c1cccc(NC(=O)c2ccccc2)c1,8.66
2,Cc1sc2nc(CN3CCCCC3)nc(Cl)c2c1C,9.23
3,COc1ccc2c(c1)-c1c(ssc1=S)C(C)(C)N2S(=O)(=O)c1ccc(C)cc1,3.8
4,CC(C)(CO)Nc1nc(N2CCCC2)nc(N2CCCC2)n1,0.747
5,Cc1ccc(NC(=O)CSc2nnc(-c3cccs3)o2)cc1S(=O)(=O)N1CCCCC1,6.08
6,COc1ccc(-c2[nH]ncc2N=Nc2cc(C)cc(C)c2)cc1,23.5
7,Cc1sc(-n2c(C)cc(/C=C3\SC(=S)NC3=O)c2C)c(C#N)c1C,8.84
8,COc1cc(CN(C(=O)c2ccco2)c2ccc(C)cc2)ccc1O,-1.51
9,COc1ccc(C=O)cc1OC1C=CCCC1 (stereo not shown),12.9
10,CC(=Nc1ccccc1)C1=C(O)COC1=O,7.28
11,Cc1cccc(N2CCN(C(=O)C3CCN(S(=O)(=O)c4cnc[nH]4)CC3)CC2)c1C,14.2
12,COCCNC(=O)Cn1c(=O)n(Cc2ccc(C(=O)NCCc3ccc(OC)c(OC)c3)cc2)c(=O)c2ccccc21,15.5
13,CC(=O)Nc1nnc(-c2ccc3c(c2)CCCC3)o1,-17.1
14,COc1cc(/C=N/NC(=O)c2cc(C)oc2C)cc(OC)c1OC,18.4
15,CCC(=O)Nc1ccc(Br)cn1,15.6
16,CC1CCN(CC(=O)Nc2ccccc2C(=O)NC2CC2)CC1,5.31
17,Cc1nc(-c2ccccc2)sc1C1(C)CC(c2ccc(OC(F)(F)F)cc2)=NO1 (stereo not shown),8.66
18,O=C(O)CCn1ncc2ccccc2c1=O,10.7
19,O=C(Nc1cccc(-c2cccc(Cl)c2)c1)C1CCN(C2CCC2)CC1,-35.1
20,COCCNC(=O)c1cc2nc(-c3ccc(F)cc3)cc(C(F)(F)F)n2n1,7.29
21,COc1ccc(CCN2CC(C(=O)OCC(=O)Nc3c(C)nn(-c4ccccc4)c3C)CC2=O)cc1OC (stereo not shown),3.6
22,COc1ccc(C(C)N2CC34C=CC(O3)C(C(=O)O)C4C2=O)cc1 (stereo not shown),15.5

row,Compound,"hERG current change (%, negative = inhibition) at 1uM [%]"
1,Cn1c(=O)c2c(ncn2CC(O)CNc2cccc(Cl)c2)n(C)c1=O (stereo not shown),3.88
2,C[C@H](NC(=O)C1CCN(S(=O)(=O)c2ccccc2)CC1)C(=O)NCc1ccccc1,2.61
3,CCCCCCCN1CCC(=O)N([C@H](CO)CC(C)C)CC1,-29.5
4,CC(NC(=O)Cn1c(=O)oc2cc(S(=O)(=O)N3CCCC3)ccc21)c1ccccc1 (stereo not shown),8.03
5,CN(C(=O)c1cc(C(=O)N(C)c2ccccc2)cc([N+](=O)[O-])c1)c1ccccc1,5.51
6,CCOCCCNS(=O)(=O)Cc1ccccc1,9.06
7,O=C(Cc1ccccc1)NCC(=O)N/N=C/c1ccc(C(=O)O)cc1,9.98
8,COc1ccc(CCNC(=O)CSc2nc3ccsc3c(=O)n2CC2CCC(C(=O)O)CC2)cc1OC (stereo not shown),15.4
9,CC(C)CCN(C(=O)CCSc1ccc(F)cc1)c1c(N)n(Cc2ccccc2)c(=O)[nH]c1=O,16.9
10,Cc1cccc(OCc2n[nH]c(=S)o2)c1C,0.599
11,Cc1ccccc1C(=O)Nc1ccnn1C1CCN(C2CCSCC2)CC1,-2.27
12,CCOC(=O)c1ccc(NC(=O)c2nn(CC)cc2Br)cc1,13.1
13,CCOC(=O)C1=C(C)N=c2s/c(=C\c3ccc(OCC(=O)O)c(OC)c3)c(=O)n2C1c1ccc(OC)cc1 (stereo not shown),11.4
14,CC1C/C(=N/Nc2ccc([N+](=O)[O-])cc2[N+](=O)[O-])CC(C)(C)C1 (stereo not shown),12.7
15,CCn1cc(C(=O)NCCCN2CCC(C)CC2)c(=O)c2cc(S(=O)(=O)N(C)C3CCCCC3)ccc21,-74
16,O=C(Nc1cccc(F)c1)N1CCC(c2ccccc2)CC1,10.4
17,COc1ccc(C(C(=O)NC2CCCCC2)N(C(=O)c2sc(C)nc2C)c2ccccc2C)cc1 (stereo not shown),-0.607
18,Cc1cccc(C(=O)NNC(=O)CSc2nnc(C3CC3)n2C)c1,20.3
19,CC1=C(C#N)C(NC(=O)c2ccc(C)cc2)(C(F)(F)F)C(=O)N1 (stereo not shown),21.9
20,CCSc1ccccc1C(=O)NCc1ccc(OC)cc1,12
21,CCCCCCNCc1c(F)cccc1Cl,6.71
22,O=C(O)c1ccc(N/N=C/c2cc3ccccc3nc2Cl)cc1,16.7
